From the supplement of paper PMC3334620
Whole data set: some 33,000 sequences, median “E-score (-0.5 to 0.5)” near -0.017, cut for the highest 2% near 0.3. The list shows a part of the results.

target: T1, Sut1 (UniProt P53032); assay: PBM E-score (8-mer binding enrichment) (E-score (-0.5 to 0.5)); higher = stronger / more preferred TF binding; most listed sequences are background and not binding sites; details: protein concentration: 200 nM; construct: GST-full length
T1 sequence: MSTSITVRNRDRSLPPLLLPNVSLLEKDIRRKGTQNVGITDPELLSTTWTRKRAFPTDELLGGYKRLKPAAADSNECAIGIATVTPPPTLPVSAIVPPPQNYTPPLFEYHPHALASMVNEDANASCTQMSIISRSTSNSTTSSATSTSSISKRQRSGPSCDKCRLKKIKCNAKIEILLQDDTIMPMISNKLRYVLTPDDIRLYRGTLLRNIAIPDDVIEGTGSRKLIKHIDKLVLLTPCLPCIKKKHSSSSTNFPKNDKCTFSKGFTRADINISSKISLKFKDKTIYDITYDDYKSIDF
Procedure, shortened: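 Bound GST-tagged yeast transcription factors, applied at about 100-200 nM to double-stranded universal all-10-mer Agilent arrays, were detected with fluorescent anti-GST. Scans were normalised with masliner. A modified Wilcoxon-Mann-Whitney statistic, the E-score, was assigned to each ungapped eight-base word pooled with its reverse complement by the Universal PBM Analysis Suite.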

Sequence	PBM E-score
CACGCCGA	-0.0856
CAAATGGG	-0.0928
CCAACCAG	-0.187
ATACGTAA	0.108
CGCAGGCA	-0.115
CCGCTGCG	-0.19
ACTGGTTC	0.179
ACTATTAT	0.222
GGAGCCAC	0.00473
ATCGAGCA	-0.0254
ATGGTCTC	-0.0673
AATAGATA	0.212
AATGTTGT	-0.0339
CTCGCGAG	0.0751
GTCACGTA	-0.16
CGTCACGA	-0.124
CTCTCCCC	-0.259
AGGCACTC	-0.126
GCTTTTCA	0.0469
CGGCTACA	-0.254
AGTAAGTA	0.225
ACCCTGTC	-0.246
AATCCGGG	0.103
CGGTCCCA	-0.13
CCGGCGAA	0.215

Sequence	PBM E-score
AGAACGCC	-0.0475
AATGTAAT	0.284
CCGCGTCC	0.124
AATGCAAA	0.212
GATTAACC	-0.1
GGCATGAA	0.064
ACACCCTG	-0.242
CCCCCGTC	-0.319
AATTCTCG	0.105
GGACGTCA	-0.0196
GGCATCTA	-0.057
ACAAACTA	0.154
ATTCTTAG	-0.0704
CTGTAAAA	0.121
GCTACTCC	0.3
ACAGTATA	0.102
GATCTGGA	-0.0652
AGCTCGAT	-0.0343
GAAGCTAA	0.0283
GCTATCAA	0.119
GTCTACCA	-0.0961
TGTCTCAA	-0.115
AACAAATC	0.152
CGCGCGTA	-0.046
AGGTTATG	0.0915

Sequence	PBM E-score
AAAAAATA	0.242
CGGCGAAG	0.01
GTATTGAA	0.118
TATACCAA	0.112
AGTTCTCA	0.17
TCTGGCAA	-0.0931
CCGCCATA	-0.043
AAGCCACA	-0.00109
CCCACTCC	0.101
CATCTCCG	0.478
GCACACCA	-0.15
ATTCTTCC	0.226
GTCCATTA	0.176
CCCGGAGC	0.406
TCGCGTCA	-0.0854
ATGTCTGC	-0.282
GCACTATA	-0.0711
AACGACCC	-0.156
CAGATGGA	-0.0312
CGCGATAA	0.137
TGACAGAA	0.117
ATGAAAAC	0.219
AACAGGTC	-0.249
ACTACACA	-0.00137
GGGTGATA	-0.125

Sequence	PBM E-score
CTCCTAAG	-0.111
CACAGACA	-0.0065
CCGATAAA	0.343
ATGCATTG	-0.0575
AGGGGCCG	-0.272
ATTACGCA	0.0411
CTATGCCC	-0.247
AAACTGGG	-0.0399
GACCATCC	-0.0701
ATTCCATG	0.0438
AAACCTCT	0.0749
CGAGGTCC	0.121
ACTCCGTG	0.473
ACCTTGTC	-0.206
AGAGTTCC	-0.0848
AGAGTCCG	0.449
GATATACA	0.194
CCTTGGTA	0.102
CACGTCGA	-0.116
AGGTAGGC	-0.131
AGCACTAA	0.191
CATTGAGG	-0.0783
CGGGATTC	0.0676
CTTTGGTC	0.146
AACGCTAA	-0.0697

Sequence	PBM E-score
AGTTCTCC	0.0174
ATCCATGG	-0.201
GCTTGTAA	0.18
CTAAATCC	0.193
GAGATCAA	0.0659
CTCACAAG	-0.131
CGTATATA	0.219
CCCCGAAG	0.0869
CCTATAGA	-0.0234
AAGCTGAT	0.0247
GAAGGGAC	-0.158
ATGTTTCA	0.0326
CCGGGACC	0.138
AAGACCAT	0.0588
GGATCAAA	0.0395
AGGGAGAG	-0.141
GACAGGTA	0.0384
GGATCGCC	-0.233
AAAGACGA	0.123
CACAGCAC	-0.205
ACAAGTAC	-0.0657
AGGACAAG	-0.238
AATTTTCG	0.0639
GGCTACAC	0.012
CTATCTTC	0.124

Sequence	PBM E-score
ACGCGAGA	-0.035
GCAAACGA	0.0369
AGGACTAT	-0.102
GAAGCGGA	0.103
GAGCAAAC	-0.0639
CCCCTAAC	-0.187
CCCGGCGA	-0.00069
CATCACAG	-0.218
ATGACCAT	0.00046
AACGACGT	-0.0293
CTGCATGA	-0.246
CACGAAGG	-0.121
AACGCCAT	-0.0733
CCAACGCG	-0.023
CATTGACA	-0.237
AGTATATG	0.00722
AGGGCGTG	-0.179
CGCCCGGC	-0.0194
CCCTCGTA	-0.2
GGAACCGA	0.144
CGTGTATC	0.0285
CCAATGAA	-0.134
CCCCCTAC	-0.243
ATATAGTC	0.215
ACCACTGA	-0.0449

Sequence	PBM E-score
AAGATTCC	0.153
GCTGAACC	-0.153
ACACCCGA	-0.0273
ATGAAATC	0.179
GGAGTACC	0.143
GGAATTAC	0.181
CGAGAGAA	-0.0301
CGAGGCAC	-0.181
CCGTAATA	0.179
CTCGTTTC	0.00631
TACGTTGA	0.0239
AATAGGAT	0.0954
CGCTCTCA	-0.203
AGCTTCAA	0.0933
TAGTGTCA	0.0294
AGAATCCT	-0.0099
ATTCACCC	0.0462
ATTTTAAC	0.122
AAGACAGC	-0.0476
TCCCGGAA	0.228
GAAATCGA	0.0701
CCCTTCGA	-0.127
GTGGGGTA	0.00147
AGAACTCC	0.31
GAGGTTGC	-0.0546

Sequence	PBM E-score
AACATGAA	-0.0497
TGTTCGAA	0.103
ACTCGTTG	0.0106
AAAGTAGC	0.0295
AAGCAATC	0.0607
ACTCTGTA	-0.139
ATTACATG	0.177
ATGACGGG	-0.178
CATGGAAG	0.0729
AACCCCCT	-0.356
TACAGTAA	0.104
CTTATGAA	0.0219
CGTTATCA	0.013
AAGTTTTA	0.214
GTTCGAAA	0.214
ATAGGTTC	0.104
TGGCCCCA	-0.354
AGAGAACC	0.0467
CCTAAGAG	-0.0768
ACTTGGGC	-0.18
GAATTCCA	0.174
AAATCTTC	0.0921
AGTCACGC	-0.152
CCGATCGA	0.0665
ACCTGCCT	-0.158

Sequence	PBM E-score
ATACGGAA	0.348
CTAGATAG	-0.0627
GATAGAAA	0.201
TCCCAGGA	-0.29
GGCCCATA	-0.114
CCGTAGAA	0.12
ACCGCGAC	-0.049
GGACGCTA	-0.229
AAGCTTGC	-0.198
CCCGGTCC	-0.0342
CACGTGGG	-0.261
AGAAAATA	0.242
TTAAGAAA	0.173
AAAAATAA	0.326
GCTCAAGC	-0.0665
ATTCCCGG	0.0955
AGGTAGAG	-0.141
CGGCAGTA	-0.0903
ACAGCGAC	-0.0841
ACGGTTGC	-0.215
ACTTAAAA	0.307
ATGCGCGC	-0.0785
GTTATCGA	0.0725
CGGCTATC	-0.0164
CTGGCCAA	-0.139

Sequence	PBM E-score
AAGGGGCC	-0.0872
CCCATAGG	-0.129
CACATTCC	0.105
GTATCAAA	0.134
CCTTGGCA	-0.0942
CCCTGCAA	-0.135
CTTAACAC	-0.122
AAGCCCTA	-0.0927
ACGGGAGT	0.0599
AGTTATTG	0.26
CACCTCGC	-0.18
CAAGCGTA	-0.0952
ATCTTTTC	0.0527
TGTGGAAA	0.202
GGTGGTCA	-0.0753
ACTCCACC	0.109
AACTATTC	0.156
AGGCAGAG	-0.0321
CCCGCTGA	-0.277
ATTCCCGC	0.0649
AGGAGCCG	-0.281
CCCTATTC	0.145
AGAGAACA	0.00919
ACATAGCC	0.0291
AAAACTCC	0.356

Sequence	PBM E-score
AAAGTGTG	-0.148
CCAACACC	0.00941
GTCGTAAA	0.0993
AGAACAAT	0.109
CGTATAGC	0.1
TAGCAATA	0.181
ACCAAAGA	0.204
ATTGGGAG	-0.119
CACTACTC	0.117
ATGCACTG	-0.145
AATATTTA	0.267
TCCACACA	0.0789
AGATCGAC	-0.129
GGCATTGA	0.0468
AAATTCGA	0.141
GCCAAGGC	-0.29
CAGTGTCG	-0.0291
CTAAAAAG	0.251
CCAAATGA	0.209
GATCATTA	0.159
CGAACGCC	-0.0644
AGCGGAAT	0.0494
AGCTGGGC	-0.0645
GCAGTCAA	-0.234
AGTTACAG	0.156

Sequence	PBM E-score
ACACGGTC	-0.137
CACGATAG	0.0209
AATATTGC	0.121
CCTGAATA	-0.0158
CACACAGC	-0.198
CCTTGTCA	-0.0563
AGCGCTCA	-0.0562
AAATGTGA	0.119
AATGACGA	0.117
AGATACTG	0.0671
ACTCTCAC	-0.0416
AATTGCGT	0.134
CATAATAA	0.131
ACCGTATA	-0.0848
CAGAGGCA	-0.224
AAGCCGCT	0.00481
ATAGAAAA	0.175
AGACGGAT	0.0639
GAACGCGA	-0.0883
CGAATTCG	0.112
CGCGCACC	-0.0354
ATATGTAC	0.167
AGAGCAGA	-0.0671
CGTCCAGA	-0.249
GCATATCC	-0.196

Sequence	PBM E-score
AGGCGTTA	0.0291
CAATCCAA	0.0981
ATCGGATC	-0.00393
CTCGCCGA	-0.072
AGTATAAT	0.247
ACGTGTAC	0.0149
TACTACCA	-0.103
CAAAGATA	0.0622
GACTACTC	0.0743
CCGTGCAG	0.0321
CCGGACAC	0.112
ATCTTGCA	0.102
GAAGCACC	-0.1
CAGGAAGA	-0.164
ACGTCTGA	-0.00497
ACATAGAG	-0.117
ACGGACCA	0.277
CTGACACC	0.00875
ACAATGCT	-0.0335
CTCCTATA	-0.215
ATCATATA	0.155
CCACAATC	-0.00875
AGTCCGGC	0.467
TAAGGACA	-0.133
GCACTTAC	-0.0542

Sequence	PBM E-score
GAACTGAA	0.115
CGTGCCTC	-0.122
GGCTTGCA	-0.0569
CGCTGACA	-0.0834
AGCCGAAA	0.149
CTCCCGTA	-0.185
GTGCTAAC	0.0604
AATTTACC	0.143
TGGATTAA	0.159
GGTAGAAC	-0.0775
GCCCCCAA	-0.255
ACATTGGT	0.113
GAGGTGGC	-0.203
ACTATAAG	0.141
AATGACTA	0.149
AAGATGAT	0.0993
CGACCGCA	-0.112
AGCTGTAG	0.0192
ATGTGGGG	-0.203
